# Assay results: paper PMC6919601, “Identification of Plasmodium dipeptidyl aminopeptidase allosteric inhibitors by high throughput screening” (PLoS ONE, 2019)
# The campaign covered roughly 110,000 compounds. About 230 (0.21%) showed an effect of 50% or more. Some of the results follow.
# Target: DPAP1 (Plasmodium falciparum, UniProt Q8IIJ9)
# Assay: primary screen, percent inhibition; read by cleavage of a fluorogenic dipeptide substrate; higher = more effect of the substance
# Parameters: species or system P. falciparum D10 trophozoite lysates; single well
# 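Further: 30 min substrate incubation versus DMSO and 10 µM JCP410 controls.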
# DPAP1, sequence (Q8IIJ9 whole entry, looked up): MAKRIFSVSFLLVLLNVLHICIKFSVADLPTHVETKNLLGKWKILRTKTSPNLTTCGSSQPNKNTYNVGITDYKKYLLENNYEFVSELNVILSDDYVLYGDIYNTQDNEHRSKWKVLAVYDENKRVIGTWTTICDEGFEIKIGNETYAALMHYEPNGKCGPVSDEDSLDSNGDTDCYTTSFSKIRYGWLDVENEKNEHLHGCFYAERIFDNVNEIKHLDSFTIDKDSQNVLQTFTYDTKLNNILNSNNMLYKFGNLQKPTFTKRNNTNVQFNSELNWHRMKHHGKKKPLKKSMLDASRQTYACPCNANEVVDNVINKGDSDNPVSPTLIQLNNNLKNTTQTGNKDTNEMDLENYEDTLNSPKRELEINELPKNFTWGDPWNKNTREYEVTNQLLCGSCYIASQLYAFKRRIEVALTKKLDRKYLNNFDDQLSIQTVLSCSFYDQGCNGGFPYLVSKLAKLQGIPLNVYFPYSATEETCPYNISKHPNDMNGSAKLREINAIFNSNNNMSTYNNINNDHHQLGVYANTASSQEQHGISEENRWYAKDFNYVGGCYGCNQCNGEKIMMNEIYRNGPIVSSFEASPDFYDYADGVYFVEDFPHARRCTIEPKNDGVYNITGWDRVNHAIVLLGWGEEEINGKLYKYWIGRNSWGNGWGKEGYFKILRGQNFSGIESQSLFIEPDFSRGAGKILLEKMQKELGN
row,SMILES,% Inhibition @ 10 uM [%]
1,O=C(Nc1ccc(-c2nc3ccccc3o2)cc1)c1cccc2ccccc12,4.16
2,Cc1ccc(CNC(=O)c2ccc(Br)o2)cc1,0.0504
3,c1ccc(N(c2ccccc2)c2nc(N3CCCCC3)nc(N3CCOCC3)n2)cc1,0.968
4,CCOc1ccc2nc(NC(=O)c3nc(S(=O)(=O)Cc4ccccc4)ncc3Cl)sc2c1,2.41
5,Clc1ccc2oc(-c3ccccc3)c/c(=N\c3nccs3)c2c1,-1.18
6,O=C(c1nc(-c2cccnc2)no1)N1CCOCC1,0.372
7,Oc1ccc(C2c3sc(O)nc3SC3C4CCC(C4)C23)cc1 (stereo not shown),49.1
8,COc1cc(C2CC(=O)N3C(=C2C#N)SCC3(O)c2ccc(F)cc2)cc(OC)c1OC (stereo not shown),3.24
9,C=CCN1C=CC(=Cc2cc(C)c3ccccc3[n+]2CC)C=C1,3.93
10,COc1ccc(-c2cn(-c3ccc(OC)cc3)c(SC)n2)cc1,6.05
11,Cc1ccc(C)c(NC(=O)CN2CC(c3ccccc3)CC2=O)c1 (stereo not shown),-6.14
12,O=C(C1CCN(S(=O)(=O)c2cccc3nsnc23)CC1)N1CCC(Cc2ccccc2)CC1,-0.00718
13,CC(C)=CCC/C(C)=C/CC(C)(C)C1NCCO1 (stereo not shown),1.63
14,O=C(Nc1nc(-c2ccc(F)cc2)cs1)C1CCCC1,1.39
15,CC(NC(=O)c1ccco1)c1ccc2c(c1)OCCCO2 (stereo not shown),-1.84
16,COc1cc(CNC(C)(C)CO)ccc1OCC(=O)NC(C)(C)C,-3.23
17,COc1cc2c(cc1OC)CN(C(=O)c1ccccc1Br)CC2,-11
18,C=CCNC(=O)/C(=C/c1ccc2c(c1)OCO2)NC(=O)c1ccccc1Cl,7.1
19,COc1cc2c(cc1OC)C(c1ccccc1)=NC(C)(C)C2,0.162
20,CCc1nn(CC(=O)O)c(=O)c2cc3sccc3n12,-1.6
21,CCOCCCNC(=O)C1CC(=O)N(CCc2ccc(OC)c(OC)c2)C1 (stereo not shown),-1.79
22,CCOC(=O)c1c(C)[nH]c(C)c1S(=O)(=O)N(C)Cc1cnn(-c2ccccc2)c1,-2.68
23,CCOc1ccccc1C(=O)NCCCn1ccnc1,0.331

row,SMILES,% Inhibition @ 10 uM [%]
1,O=C(C1=C(OC(=O)c2ccco2)c2ccccc2S(=O)(=O)N1Cc1ccccc1)c1ccccc1,-2.71
2,CCOC(=O)c1[nH]c2ccccc2c1NC(=O)CCc1ccccc1,-0.58
3,Clc1ccccc1OCCCCCN1CCOCC1,-2.12
4,COc1cccc(NC(=O)COc2ccc(S(=O)(=O)NC3CCCCC3)cc2)c1,1.49
5,COc1cccc(/C=C2\N=C(c3ccc(C)cc3)OC2=O)c1OC,3.96
6,CCC1(OC(=O)c2ccccc2)CC(C)N(C)CC1C (stereo not shown),-3.65
7,CCn1ncc(C2=NOC(C(=O)Nc3cccnc3)C2)c1C (stereo not shown),-4.85
8,O=C(NCc1ccco1)C12CC3CC(CC(C3)C1)C2,-5.38
9,CCOCCn1c(C)c(C(C)=O)c2cc(O)ccc21,-3.76
10,CN(C)c1ccc(/C=C(\C#N)c2nc(-c3ccc(Br)cc3)cs2)cc1,4.33
11,Cc1cc(O)n2nc(COc3ccccc3)nc2n1,-0.671
12,C=C(C)Cn1c(SC(C)C)nc2c1c(=O)[nH]c(=O)n2C,0.317
13,Cc1c(Cl)cccc1N(CC(=O)NC1CC2CCC1C2)S(C)(=O)=O (stereo not shown),0.235
14,O=C(O)c1ccc(CNCCC2=CCCCC2)s1,-6.24
15,Cc1c(Cl)cccc1NC(=O)/C=C/c1ccccc1,3.16
16,O=C(O)c1ccccc1N1C(=O)C2C3c4ccccc4C(c4ccccc43)C2C1=O (stereo not shown),1.9
17,Cc1ccc(CN(Cc2ccco2)C(=S)NCC(=O)NCc2ccc3c(c2)OCO3)cc1,-0.406
18,CCC(CO)Nc1nc2c(c(=O)n(C)c(=O)n2C)n1C (stereo not shown),3.79
19,CC(C)(C)NC(=O)CSCc1cnn(-c2ccccc2)c1-n1cccc1,2.27
20,CC(=O)N1N=C(c2ccc(Cl)cc2Cl)CC1c1ccccc1 (stereo not shown),-5.92
21,CC(NCc1ccc(F)cc1)c1ccccc1 (stereo not shown),3.99
22,Cc1sc2c(c1C)c(=O)n(Cc1ccccc1)c(=O)n2CC(=O)NC1CCCC1,7.9
23,COc1ccc(CC(=O)N2CCN(c3ccc([N+](=O)[O-])cc3)CC2)cc1,-0.261

row,SMILES,% Inhibition @ 10 uM [%]
1,COc1ccc(C(=O)/C=C/c2ccco2)c(OC)c1,-2.28
2,COc1ccc(/C(O)=C/C=N/c2ccc3c(c2)OCO3)cc1,-4.12
3,Cc1c(Cl)cccc1-c1ccc(C(=O)O)o1,9.01
4,Cc1nc2cc(S(=O)(=O)N3CCC(C(=O)NC(C)c4ccccc4)CC3)ccc2n1C1CCCC1 (stereo not shown),-0.0309
5,CC(C)C(C#CC(O)(c1ccccc1)c1ccccc1)N(C)C (stereo not shown),1.24
6,c1ccc(CN2CCN(c3ccccc3)CC2)cc1,3.16
7,CCCCOC(=O)NC(C(F)(F)F)C(F)(F)F,-3.14
8,Brc1ccc(OCCn2cnc3ccccc32)cc1,0.162
9,O=S(=O)(Nc1ncccn1)c1ccccc1,-3.48
10,CN(C)CC(=O)Nc1c2c(nc3ccccc13)CCC2,7.92
11,c1ccc(-c2nnc(Cc3nnc(-c4ccccc4)o3)o2)cc1,-4.43
12,O=C(O)C1C2CC3C1C(=O)Oc1ccccc1C1c4sc(O)nc4SC2C13 (stereo not shown),2.95
13,CCOc1ccc(CC(=O)NC2CCCCC2)cc1OCC,0.145
14,CN(CC(=O)O)S(=O)(=O)c1cccs1,-0.458
15,Cc1ccc2oc(-c3cc(N)ccc3Cl)nc2c1,-0.712
16,COc1ccc(OC)c(CNC(=O)CN2C(=O)CSc3c2c(C)nn3-c2ccccc2)c1,9.03
17,Cc1ccc(OC(C)c2nc(-c3nonc3N)no2)cc1C (stereo not shown),-1.06
18,CCNC(=O)c1cc2c(=O)n3cc(C)ccc3nc2n(CC2CCCO2)c1=N (stereo not shown),-3.27
19,COc1ccc(-c2nc3cc(C)ccc3[nH]2)cc1OC,-2.28
20,CCOC(=O)c1cccc(Oc2nc(C)nc3sc4c(c23)CCCC4)c1,0.147
21,CCSc1ncc(S(=O)(=O)c2ccccc2)c(N)n1,5.62
